According to paper PMC12866851:
No constants are given. Whether binding was seen depends on the method and setting. Binding seen in cells or lysates may run through a third protein. Some binding calls cover weakened binding; strength is not graded here.

Amino acid sequences for entries named in this document (tags omitted).
UniProt Q15388: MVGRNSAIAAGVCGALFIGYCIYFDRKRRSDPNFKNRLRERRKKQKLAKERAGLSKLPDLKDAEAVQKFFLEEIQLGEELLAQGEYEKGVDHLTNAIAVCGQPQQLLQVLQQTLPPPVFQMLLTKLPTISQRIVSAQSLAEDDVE

Target: T1, Long‐chain acyl‐CoA synthetase 5 (ACSL5) (human (endogenous in HCT116)) (UniProt Q9ULC5)
T1 sequence: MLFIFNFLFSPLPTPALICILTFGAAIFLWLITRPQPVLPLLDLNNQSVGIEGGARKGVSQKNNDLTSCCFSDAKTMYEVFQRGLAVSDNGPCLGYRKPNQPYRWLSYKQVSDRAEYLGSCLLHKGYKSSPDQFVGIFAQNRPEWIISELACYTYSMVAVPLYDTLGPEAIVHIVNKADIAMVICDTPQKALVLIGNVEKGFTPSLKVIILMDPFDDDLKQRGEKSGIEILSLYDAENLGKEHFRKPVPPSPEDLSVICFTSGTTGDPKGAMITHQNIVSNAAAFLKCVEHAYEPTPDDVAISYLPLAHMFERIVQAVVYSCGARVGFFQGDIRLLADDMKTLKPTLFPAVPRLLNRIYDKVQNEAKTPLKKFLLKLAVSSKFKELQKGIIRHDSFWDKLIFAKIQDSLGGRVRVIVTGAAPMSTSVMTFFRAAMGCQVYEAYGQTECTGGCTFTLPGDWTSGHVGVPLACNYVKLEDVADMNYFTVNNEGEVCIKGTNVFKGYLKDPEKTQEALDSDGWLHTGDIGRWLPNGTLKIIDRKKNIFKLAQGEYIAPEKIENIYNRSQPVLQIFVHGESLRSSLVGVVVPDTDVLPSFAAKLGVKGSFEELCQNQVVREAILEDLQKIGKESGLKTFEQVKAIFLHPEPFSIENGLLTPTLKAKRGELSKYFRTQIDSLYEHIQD
Experiment: co-IP; endogenous proteins of HCT116 lysate; IP lysis buffer (50 mM Tris-HCl pH 7.4, 150 mM NaCl, 1 mM EDTA, 5% glycerol, 0.4% Triton X-100, 0.4% NP-40); primary antibody overnight at 4 °C, Protein A/G beads 2 h, five washes; Western blot; in Figure 4I cells cultured with or without glutamine for 48 h

“TOM20 (from UniProt Q15388 1-145) (receptor)” was tested, and the binding was “binds”.
